Assay results reported in the RNAGym collection of RNA variant scans (doi:10.1073/pnas.2313332121).
Variants at the background level are over-represented here.

B1: TPR 5TU (parent)
chain: GGAUCUUCUCGAUCUAACAAAAAAGACAAAUCUGCCACAAAGCUUGAGAGCAUCUUCGGAUGCAGAGGCGGCAGCCUUCGGUGGCGCGAUAGCGCCAACGUUCUCAACUAUGACACGCAAAACGCGUGCUCCGUUGAAUGGAGUUUAUCAUG

Variants of: B1
Experiment: polymerase ribozyme fitness, log enrichment relative to wild type (log ratio); higher = more active; in vitro selection for triplet polymerase activity
Method in brief: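 Genotype fitness is the logarithm of its enrichment divided by wild-type enrichment, using inverse-variance-weighted averages of replicates. That logarithm is base 2. Enrichment was measured by Illumina sequencing of input and output libraries from one triplicate in vitro selection round, with frozen incubation at −7 °C, on PCR-built, transcribed mutant libraries of each subunit of a heterodimeric triplet polymerase ribozyme, retaining genotypes with ≥10 input reads and ≥1 read per output.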

Point of comparison: GGAUCUUCUCGAUCUAACAAAAAAGACAAAUCUGCCACAAAGCUUGAGAGCAUCUUCGGAUGCAGAGGCGGCAGCCUUCGGUGUCGCGAUAGCGGCAACGUUCUCAACUAUGACACGCAAAUCGCGUGCUCCGUUGAAUGGAGUUUAUCAUC [G84U C95G A122U G152C], “polymerase ribozyme fitness (log ratio)” value -3.55. Against it:
- GGAUCUUCUCGAUCUAACAAAAAAGACAAAUCUGCCACAAAGCUUGAGAGCAUCUUCGGAUGCAGAGGCGGCAGCCUUCGGUGCCGCGAUAGCGCCAACGUUCUCAACUAUGACACGCAAAACGCCUGCUCCGUUGAAUGGAGUUUAUCAUG [G84C G126C] — higher, -1.54
- GGAUCUUCUCGAUCUAACAAAAAAGACAAAUCUGCCACAAAGCUUGAGAGCAUCUUCGGAUGCAGAGGCGGCAGCCUUCGGUGCCGCGAUAGCGCCAACGUGCUCAACUAUGACACGCAAAACGCGUGCUCCGUUGAAUUGAGUUUAUCAUG [G84C U102G G140U] — lower, ≤ -4.2
- GGAUCUUCUCGAUCUAACAAAAAAGACAAAUCUGCCACAAAGCUUGAGAGCAUCUUCGGAUGCAGAGGCGGCAGCCUUCGGUGUCGCGAUUGCGCCAACGUUCUCACCUAUGACACGCAAAACGCGUGCUCCGUUCAAUGGAGUUUAUCAUG [G84U A91U A107C G136C] — lower, ≤ -4.2
- GGAUCUUCUCGAUCUAACAAAAAAGACAAAUCUGCCACAAAGCUUGAGAGCAUCUUCGGAUGCAGAGGCGGCAGCCUUCGGUGUCGCGAUAGCGCCCACGUUCUCAACUAUGACACGCAAAACGCGUGCUCCGUUGAAUGGAGUUUAUCAUG [G84U A97C] — lower, ≤ -4.2
- GGAUCUUCUCGAUCUAACAAAAAAGACAAAUCUGCCACAAAGCUUGAGAGCAUCUUCGGAUGCAGAGGCGGCAGCCUUCGGUGUCGCGAUAGCGCCAACGUUCUCGACAAUGACACGCAAUACGCGUGCUACGUUGAAUGAAGUAUAUCAUG [G84U A106G U109A A121U C131A G141A U145A] — lower, ≤ -4.2
- GGAUCUUCUCGAUCUAACAAAAAAGACAAAUCUGCCACAAAGCUUGAGAGCAUCUUCGGAUGCAGAGGCGGCAGCCUUCGGUGUCGCGAUAGCGCCAACGUUCUCAACUAUGACUCGCAAAACGCGUGCUCCGUUGAAUGGAUUUUAUCAUG [G84U A115U G143U] — lower, ≤ -4.2
- GGAUCUUCUCGAUCUAACAAAAAAGACAAAUCUGCCACAAAGCUUGAGAGCAUCUUCGGAUGCAGAGGCGGCAGCCUUCGGUGUCGCGAUAGCGCCAACGUUCUCAACUAUGACACGCAUAACGCGUGCUCCGUUGAAUGGAGUUUAUCAUG [G84U A120U] — higher, -2.07
- GGAUCUUCUCGAUCUAACAAAAAAGACAAAUCUGCCACAAAGCUUGAGAGCAUCUUCGGAUGCAGAGGCGGCAGCCUUCGGUGUCGCGAUAGGGCCAACGUUCUCAACUAUGACACGCAAAACGCGUGCUCCGAUGAAUGGAGUUUAUCAUG [G84U C93G U134A] — lower, ≤ -4.2
- GGAUCUUCUCGAUCUAACAAAAAAGACAAAUCUGCCACAAAGCUUGAGAGCAUCUUCGGAUGCAGAGGCGGCAGCCUUCGGUGUCGCGAUAGCGUCAACGUUCUCAACUAUGACACGCAAAACGCGUGCUCCGUUGAAUGGACUUUAUCAUG [G84U C95U G143C] — higher, -3.33
- GGAUCUUCUCGAUCUAACAAAAAAGACAAAUCUGCCACAAAGCUUGAGAGCAUCUUCGGAUGCAGAGGCGGCAGCCUUCGGUGUCGCGAUAGCGCAAACGUUCUCAACUAUGACACGCAAAACGCGUGCUCCGUUGAAUGGAGUUUAUCAUG [G84U C96A] — higher, -2.84
- GGAUCUUCUCGAUCUAACAAAAAAGACAAAUCUGCCACAAAGCUUGAGAGCAUCUUCGGAUGCAGAGGCGGCAGCCUUCGGUGUCGCGAUAGCGCUAACGUUCUCAACUAUGACACGCAAAGCGCGUGCUCCGUUGAAUGGAGUUUAUGAUG [G84U C96U A122G C149G] — lower, ≤ -4.2
- GGAUCUUCUCGAUCUAACAAAAAAGACAAAUCUGCCACAAAGCUUGAGAGCAUCUUCGGAUGCAGAGGCGGCAGCCUUCGGUGUCGCGAUAGCGCCAACGUUGUCAACUAUGACACGCAAAACGCGUGCUCCGUUGAAUGGAGUUUAUCAUG [G84U C103G] — lower, ≤ -4.2
- GGAUCUUCUCGAUCUAACAAAAAAGACAAAUCUGCCACAAAGCUUGAGAGCAUCUUCGGAUGCAGAGGCGGCAGCCUUCGGUGUCGCGAUAGCGCCAACGUUGUCGACUAUGACACGCAAAACGCGUGCUCCGUUGAAUGGAGUUUAUCAUG [G84U C103G A106G] — lower, ≤ -4.2
- GGAUCUUCUCGAUCUAACAAAAAAGACAAAUCUGCCACAAAGCUUGAGAGCAUCUUCGGAUGCAGAGGCGGCAGCCUUCGGUGUCGCGAUAGCGCCAACGUUCUCAAAUAUGACACGUAAAAAGCGUGCUCCGUUGAAUGGAGUUUAUCAUG [G84U C108A C118U C123A] — lower, ≤ -4.2
- GGAUCUUCUCGAUCUAACAAAAAAGACAAAUCUGCCACAAAGCUUGAGAGCAUCUUCGGAUGCAGAGGCGGCAGCCUUCGGUGUCGCGAUAGCGCCAACGUUCUCAAUUAUGACACGCAAAACGCGAGCUCCUUUGAAUGCAGUUUAUCAUG [G84U C108U U127A G133U G141C] — lower, ≤ -4.2
- GGAUCUUCUCGAUCUAACAAAAAAGACAAAUCUGCCACAAAGCUUGAGAGCAUCUUCGGAUGCAGAGGCGGCAGCCUUCGGUGUCGCGAUAGCGCCAACGUUCUCAACUAUGACAAGCAAAACGCGUGCUCCGUUGAAUGGAGUUUAUCAUG [G84U C116A] — higher, -0.432
- GGAUCUUCUCGAUCUAACAAAAAAGACAAAUCUGCCACAAAGCUUGAGAGCAUCUUCGGAUGCAGAGGCGGCAGCCUUCGGUGUCGCGAUAGCGCCAACGUUCUCAACUAUGACACGGAAAACGCGUGCUCCGUUGAAUGGAGUUUAUCAUG [G84U C118G] — lower, ≤ -4.2
- GGAUCUUCUCGAUCUAACAAAAAAGACAAAUCUGCCACAAAGCUUGAGAGCAUCUUCGGAUGCAGAGGCGGCAGCCUUCGGUGUCACGAAAGCGCCAACAUUCUCAACUAUGACACGCAAAACGCGUGCUCCGUUGAAUGGAGUUUAUCAUG [G84U G86A U90A G100A] — lower, ≤ -4.2
